The source gives no read counts; variants with many changes may rest on few reads.

Our source for the self-cleavage values is the RNAGym collection of RNA variant scans (doi:10.7554/elife.90254).

The chains are these.
B1: LINE1-mini (parent)
chain: GGCAGAGCUCAACACAGCGUGGCAAAGUGGCUGUGGCUAGACUGCC

In the data set the parent is B1. The experiment in a line: self-cleavage, relative activity (ratio to wild type); higher = more cleavage; in vitro, sequencing; the parent is a self-cleaving ribozyme.
As to A16U U28A G33C C45U, the self-cleavage was determined as 0.02. With A16G G21A G33U, the self-cleavage stood at 0.07.

Regarding C15U C23G C42G, the self-cleavage worked out at 0.02. Next, A16C U28C G35U A39C: 0; A16U G21A G22C G44C: 0.05. A16U C23G G40A A41C C42G: the self-cleavage amounted to 0.09. For the variant A16C G17U C23U C45U, the self-cleavage stood at 0.81. Next, A16U G17U C37A: 0.09. To C15U G21A U28G C37U U43A belongs 0.01. To G17A G22C A25G C31A U34C belongs 0.01. Turning to A16U G29A G36U A41G, the self-cleavage was found to be 0.1. On to A16C G19A U38A, for which the self-cleavage was 0.05. On to G17A A39G U43C, for which the self-cleavage is 0. Regarding A16C A25G A39U, the self-cleavage worked out at 0.05. As to A16U A26U G30A, the self-cleavage stood at 0.09. Next, A16U G33U C42U: 0.24. For the variant C15U U34G G36U, the self-cleavage was found to be 0.04.

Take G17A G29U G33U C37U: the self-cleavage turned out to be 0.08. To A16G G21C A24C G30A belongs 0.05. Turning to A16G C18G G35A C37U, the self-cleavage was 0.05. To C15U C42U C45G belongs 0.04; to C15U A24U A25G G36A, 0.04. For the variant A16C G19U G22U, the self-cleavage stood at 0.08. To A16C G17C A24U belongs 0.12; to C15U G29A G35A C37G C45U, 0.04; to C15U C23A G33U, 0.38. Regarding A16G C23U G30C, the self-cleavage was 0.85. As for C15U G21U G44C, the self-cleavage was determined as 0.11. Next, G17A C23U A39U: 0.1; A16U G29C U32A G36C: 0.02.

With A16G C31A A41C C42G C46U, the self-cleavage came to 0.01. To C15U C23A A24G A39C belongs 0.18; to A16C G17C C18A U32A, 0.15; to C15U C23G A26U U38C, 0.06. Turning to G17A G29A U34G G36U, the self-cleavage is 0.02. With A16U C18U G21U G22U U32A, the self-cleavage was determined as 0.16. For the variant A16U G40C C42A C46A, the self-cleavage was 0.03.

As to G17A A41U C42G, the self-cleavage came out at 0.02. For the variant G17A G19C U43G, the self-cleavage worked out at 0. A16C A24G A39U: the self-cleavage was found to be 0. Next, G17A C23A C37U: 0.05; A16C A26C C37G: 0.02; A16G G36A U43C: 0.07. To A16U G29C G40C belongs 0.02; to A16G A26G C46A, 0.24; to A16G C18A G30A A39C, 0.06. Turning to G17A G22A C42A, the self-cleavage amounted to 0.01.

Regarding A16C C18G A24G U28A U34A, the self-cleavage stood at 0.02.

Turning to G17A G19U U34C C42U, the self-cleavage amounted to 0.09. Next, C15U G36U C45U: 0.02. Next, A16C G17U C45A C46G: 0.03; C15U U20A G22A: 0.23; C15U A16C G40A: 0.11. Take C15U U32A G35A A39U: the self-cleavage amounted to 0.06. Next, A16C G17U U32A U34A G36C A41U: 0.01. Regarding C15U G21A G40A, the self-cleavage came to 0.07. For A16U C23U G35U, the self-cleavage came out at 0.03.

As to A16U G19A A26C G33A G44U, the self-cleavage amounted to 0.03. For A16C G22A A39U, the self-cleavage was 0.07.

Consider C15U G21A G29C G33U C46A, for which the self-cleavage stood at 0.46. Regarding A16G G27U G33U, the self-cleavage was 0.06. Consider C15U A16U G22A G27C G30C G35U, for which the self-cleavage was 0.01.

A16C G21U G30A U34C: the self-cleavage worked out at 0.03.

On to C15U A39C C45G, for which the self-cleavage was determined as 0.09.

On to A16C A25G A26U, for which the self-cleavage was found to be 0.02. With A16C C23G G36U, the self-cleavage was 0.02.

As for A16U G29U U32A A39C, the self-cleavage is 0.01. With A16G G19C G22C U32C U38A U43C, the self-cleavage was found to be 0.

A16C A25C G36A: the self-cleavage is 0.1. As to G17A A26G G35A G40C, the self-cleavage is 0.05.

As for A16G G35U C37A, the self-cleavage was found to be 0.05. For A16G G17C G19C G27U, the self-cleavage worked out at 0.14. On to G17A G27C G30A, for which the self-cleavage was found to be 0.73. For the variant G17A A24C U28G C46G, the self-cleavage was determined as 0.04.

Turning to G17A G22C A24C A25C G36U G44C, the self-cleavage came to 0.05. Turning to A16C C18G G44C, the self-cleavage amounted to 0.05. Take C15U C37A C46A: the self-cleavage was determined as 0.06. Next, A16U U20A G27A G29U: 0.16.

Consider C15U G36U U43G, for which the self-cleavage worked out at 0. Next, A16U C37G C42A: 0.05; C15U G40U A41U U43G: 0.12. To A16G C18A C46A belongs 0.09. Next, A16G G19C A26G: 0.05; A16G U20A G29A A39U: 0.63.

In the case of A16G G27C U34C, the self-cleavage worked out at 0.04. Regarding G17A C18G C37A, the self-cleavage turned out to be 0.03. Regarding A16G G22U C23A, the self-cleavage worked out at 1.02. To A16C G29U U38G belongs 0.05; to A16G U20A G36A, 0.03; to A16G G22A U38A C45U, 0.46. To C15U C31A G33C G36A belongs 0.05; to G17A C31A U34G, 0. To A16G U34C C46A belongs 0.01; to G17A A25C G27U, 1.1; to A16U G19A A24G A25U U28G G35C A39G C46G, 0.01. Take C15U A24U G33A G36A: the self-cleavage is 0.03. C15U G21C A25G C31U G36C: the self-cleavage was 0.01. Next, A16U C23U G29A: 0.11; A16C A25C G40C: 0.02. Next, C15U U20G C46U: 0.13; A16U A25C G29A G35U U38C: 0.02; C15U C23G G29U: 2.2.

Regarding G17A G22U G36C, the self-cleavage worked out at 0.03. On to A16C G19A C46A, for which the self-cleavage amounted to 0.15. As for C15U C37A U38A U43A, the self-cleavage turned out to be 0.02.

For A16C U32G C37U, the self-cleavage was 0.

As for A16U G17U C18A G19U, the self-cleavage came to 0.08. Next, G17A G29A C37G: 0.02.

Turning to G17A G21C C46A, the self-cleavage was 1.02. For A16U G21U U38G, the self-cleavage was 0.02. To A16U G30C U38C belongs 0.32; to G17A G27U U34A G36U, 0.02.

On to A16U G21A G30U G40C, for which the self-cleavage turned out to be 0.04. To G17A A25C G44A belongs 0.05; to G17A C42A C46U, 0.01; to A16G G22U G30A, 0.2. As for A16C G30C U32G C37U, the self-cleavage came out at 0.03. In the case of A16G C18G C45U, the self-cleavage is 0.07.

On to C15U C23U G40U G44A C45G, for which the self-cleavage stood at 0.04. Next, C15U U28C G33A: 0.59. Regarding A16G G33U C37A, the self-cleavage turned out to be 0. A16C G33C U34C G40U: the self-cleavage amounted to 0.01. Next, C15U G19A A24G: 0.4; C15U G21C G22C G30A G40C: 0.06. Regarding A16C C23G U32G, the self-cleavage was found to be 0.49.

With G17A C23U G33U G35U U43A G44C, the self-cleavage was 0.02. As to C15U G19A C31A, the self-cleavage worked out at 0.05.

Regarding G17A C18A G21C C31A C37U, the self-cleavage came to 0.02. To A16C U28A G29U A41C C42U belongs 0.06; to A16U G22A U34C, 0.03; to C15U G22A A25U G33C G35C, 0.01. To C15U A26U G29A belongs 0.32; to A16G G30A U38G G44U, 0.04; to C15U A24C G29U, 0.56. To C15U C18G G36A belongs 0.02; to A16C C18A G29C A41C, 0.08. Consider A16G G19A G27U G29U U32G U43G, for which the self-cleavage came to 0. In the case of C15U G33U C45A, the self-cleavage is 0.09. To A16G G19U G36U U38A A41U belongs 0.01; to A16U U28A G29U G36A, 0.25.

Turning to A16C G19U G44U, the self-cleavage worked out at 0.01.

For the variant A16C G33U G44U, the self-cleavage worked out at 0.1. To A16G U20A G27C U34C C42A belongs 0.02; to C15U G19U A26G G27U C37G, 0.02. Next, A16C U20A C42A: 0.04. Next, A16G U20C C46U: 0.07. For the variant C15U C23G U32A, the self-cleavage came to 0.16. To A16C U20A G29A belongs 0.58. As to A16G G19C U20G, the self-cleavage turned out to be 0.2.

On to C15U G17A G29C, for which the self-cleavage worked out at 0.03. On to A16C G21U G29C G30C, for which the self-cleavage amounted to 0.01. Turning to C15U U28C G29A, the self-cleavage is 2.75. To A16G U34G G44U belongs 0.01; to G17A C23A A25U A39C, 0.03; to A16C G21U A26U G44C C45U, 0.01. With G17A A25G A26G C37A, the self-cleavage worked out at 0.04. To A16C G22C C31U G33A C46G belongs 0.02. Take C15U G30C G44C: the self-cleavage worked out at 0.03. Take A16G A26C G29U U43A: the self-cleavage was 0.01. Next, A16C G22C A24G G29C U38A C42A: 0.02; A16C G19A U28G G33C: 0.01. To A16C G22A G30C C31G C45U belongs 0.69; to C15U C31U C46G, 0.12. To A16G G21U G33C belongs 0.02. Turning to C15U G19U U28C G35U, the self-cleavage turned out to be 0.02.

For C15U A25U G30A A41G, the self-cleavage was determined as 0.05. To A16G A24G C31U belongs 0.02.
